Results: PubChem BioAssay AID652104 (National Center for Advancing Translational Sciences (NCATS), 2013)
The whole screen tested about 410,000 compounds, of which about 7,200 (1.8%) were called active. Inconclusive results, whose numbers are uncertain, are shown with a selection of clear calls. The call rests on the fitted dose curve; in most records, active means well fitted activation curve with a large enough effect; inconclusive means small, poorly fitted or top-dose-only effect, or another doubt; inactive means no such curve, though single readings can be large or run the other way. No potency is given beside an inconclusive call; the fits are too rough.

experiment: qHTS of TDP-43 Inhibitors; details: TDP-43 expressing yeast growth rescue, BacTiter-Glo, 24 h; growth rescue (activation): at 46.1 µM (top of the series) unless noted; further: nearly all actives have a fitted effect of over 50% in size; on growth rescue (activation): % of control where 0% means no effect
In short: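 Galactose-induced TDP-43 yeast, OD600=0.02, compound pinned; 24 hr, 30 deg C; BacTiter-Glo luminescence for growth. Inhibitors of TDP-43 toxicity read as activators.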
Potency means the concentration at half of the fitted maximal effect; tags describe the fitted curve by direction and shape.

Question: For `Cc1ccc(C2CC(=O)NC(SCc3ccccc3)=C2C#N)cc1` (centres undefined), which Potency is on record?
Answer: Its Potency is inconclusive [activator, single point].

Question: With `O=C(CCCCCBr)N1CCC(CC2CC(c3ccc(Cl)cc3)=NO2)(C(=O)NCC2CCCCC2)CC1` (centres undefined) as the molecule, how does the “growth rescue (activation)” value read?
Answer: Its value is inactive: 13.5%.

Question: Which Potency does the source give for `CCOC(=O)c1c(C)oc2ccc(N(C(=O)c3ccncc3)S(=O)(=O)c3ccc(F)cc3)cc12` here?
Answer: The Potency was inconclusive [activator, partial curve].

Question: With `NS(=O)(=O)c1cccc(NC(=O)COC(=O)CNC(=O)c2ccc(-c3ccccc3)cc2)c1` as the molecule, how does the “growth rescue (activation)” value read?
Answer: Its value is inactive: 18.9%.

Question: For `COc1ccc(OC)c(CCNC(=O)c2cc3cccc4c3n2CCS4)c1`, which Potency is on record?
Answer: The Potency was inconclusive [activator, partial curve].

Question: With `COc1ccc(C2=CC(c3ccc(OC)c(OC)c3)n3nnnc3N2)c(OC)c1` (centres undefined) as the molecule, how does the Potency read?
Answer: The Potency was inconclusive [activator, single point].

Question: Which Potency does the source give for `CCN(Cc1ccccc1)S(=O)(=O)c1ccc(C(=O)Nc2nnc(C3CC3)o2)cc1` here?
Answer: The Potency was inconclusive [activator, partial curve].

Question: Which Potency does the source give for `Cc1cc2n(n1)CCCN2C(=O)Nc1ccc(C)c(Cl)c1` here?
Answer: The Potency was inconclusive [activator, partial curve].

Question: For `O=C(Oc1ccccc1)c1ccccc1C(=O)Oc1ccccc1`, which Potency is on record?
Answer: The Potency was inconclusive [activator, partial curve].

Question: Which Potency does the source give for `CC(C)C[C@H](N)c1cn([C@@H](Cc2cc3ccccc3[nH]2)C(=O)N2CCNCC2)nn1` here?
Answer: Its Potency is inconclusive [activator, single point].

Question: Which Potency does the source give for `COc1cccc(C(=O)n2ccc(-c3cccs3)n2)c1` here?
Answer: The Potency was inconclusive [activator, single point].

Question: Which Potency does the source give for `CC(OC(=O)Cc1c[nH]c2ccccc12)C(=O)c1ccccc1` (centres undefined) here?
Answer: The Potency was inconclusive [activator, partial curve, poor fit].

Question: Which “growth rescue (activation)” value does the source give for `COCCCNC(=O)C1CCN(C(=O)c2ccc(-n3ccc4ccccc43)s2)CC1` here?
Answer: Its value is inactive: 11.3%.

Question: For `CCOc1ccc2c(C)nc(NC3=NC(C)(C)C=C(C)N3)nc2c1`, which “growth rescue (activation)” value is on record?
Answer: Its value is inactive: -15.8%.

Question: Which Potency does the source give for `C/C(=C\c1ccccc1)C(=O)Nc1ccc(Cl)cn1` here?
Answer: The Potency was inconclusive [activator, single point].

Question: For `O=C(Nc1ccc(O)c(-c2nc3ccccc3o2)c1)c1ccc(-c2cccc(Cl)c2)o1`, which “growth rescue (activation)” value is on record?
Answer: The value was inactive: 23.1%.

Question: Which Potency does the source give for `O=C(O)COc1ccc2oc3c(c2c1)CCCC3` here?
Answer: Its Potency is inconclusive [activator, single point].

Question: With `Cc1onc(-c2ccccc2)c1C(=O)NNC(=S)NC(=O)c1ccc(Cl)cc1Cl` as the molecule, how does the Potency read?
Answer: Its Potency is inconclusive [activator, single point].

Question: With `C/C(=N\NC(=O)c1ccc(N(C)C)cc1)c1cccnc1` as the molecule, how does the Potency read?
Answer: The Potency was inconclusive [activator, single point].

Question: For `CCOc1ccc(Nc2nc(N)nc(CCl)n2)cc1`, which Potency is on record?
Answer: The Potency was inconclusive [activator, partial curve].

Question: For `Cc1onc(-c2ccccc2Cl)c1C(=O)NCCn1ccc2ccccc21`, which Potency is on record?
Answer: Its Potency is inconclusive [activator, single point].

Question: With `O=C(c1cc(-c2cccc(Cl)c2)on1)N1CCCCCC1` as the molecule, how does the Potency read?
Answer: The Potency was inconclusive [activator, single point].

Question: With `S=C1Nc2ccccc2CS1` as the molecule, how does the Potency read?
Answer: Its Potency is inconclusive [activator, single point].

Question: For `O=C1Nc2ccc(Br)cc2/C1=C/C(=O)c1ccccc1`, which Potency is on record?
Answer: Its Potency is inconclusive [activator, partial curve, poor fit].

Question: For `O=C(c1ccc(F)cc1)N1CCN(CCc2ccncc2)CC1`, which “growth rescue (activation)” value is on record?
Answer: Its value is inactive: -5.12%.

Question: With `CC(=O)N1c2ccccc2CC1C(=O)N1CCN(c2cc(Cl)ccc2C)CC1` (centres undefined) as the molecule, how does the Potency read?
Answer: Its Potency is inconclusive [activator, full curve].

Question: With `O=Cc1ccc(OCc2nnc(-c3ccccc3Br)o2)cc1` as the molecule, how does the Potency read?
Answer: Its Potency is inconclusive [activator, single point].

Question: For `CCCCCCOc1ccc(NC(=O)CC2C(=O)N(CC)C(=S)N2Cc2ccco2)cc1` (centres undefined), which Potency is on record?
Answer: Its Potency is inconclusive [activator, single point].

Question: For `CCOc1ccccc1C(=O)N1CCC(C(=O)c2ccc(F)cc2)CC1`, which Potency is on record?
Answer: Its Potency is inconclusive [activator, single point].

Question: For `CCC(C(=O)Nc1ccc(F)cc1F)n1nc(-c2ccccc2)c2c(c1=O)CCCC2` (centres undefined), which Potency is on record?
Answer: The Potency was inconclusive [activator, partial curve, poor fit].

Question: With `CC(=O)Nc1cc(C(F)(F)F)ccc1OCCOc1ccccc1` as the molecule, how does the Potency read?
Answer: The Potency was active: 12.6 µM.

Question: With `NC(=O)c1cn(Cc2c(F)cccc2F)nn1` as the molecule, how does the Potency read?
Answer: The Potency was inconclusive [activator, partial curve, poor fit].

Question: Which “growth rescue (activation)” value does the source give for `COc1ccc(OC)c(NC(=O)COC(=O)c2nc(Cl)ccc2Cl)c1` here?
Answer: The value was inactive: 11.8%.

Question: For `COc1ccc(C)cc1NS(=O)(=O)c1cc(Br)cc2c1N(C(C)=O)C(C)C2` (centres undefined), which “growth rescue (activation)” value is on record?
Answer: The value was inactive: 0.416%.

Question: Which “growth rescue (activation)” value does the source give for `COc1ccc(-c2cc(C(=O)Nc3ccc(NC(C)=O)cc3)[nH]n2)c(C)c1` here?
Answer: Its value is inactive: 16.6%.

Question: With `CC(=O)C[C@H]1c2cc(C(F)(F)F)ccc2S(=O)(=O)N1Cc1ccccc1` as the molecule, how does the Potency read?
Answer: The Potency was inconclusive [activator, partial curve, poor fit].

Question: Which Potency does the source give for `C=CCNC(=O)COc1ccc(Br)cc1Cl` here?
Answer: Its Potency is inconclusive [activator, partial curve].

Question: With `Cc1c(Cl)cccc1-n1nnc(-c2nc(-c3ccc4c(c3)OCO4)no2)c1C` as the molecule, how does the Potency read?
Answer: Its Potency is inconclusive [activator, partial curve, poor fit].

Question: Which Potency does the source give for `Cc1cc2nc3c(nc2cc1C)C1(C(=O)O)CCC3(C)C1(C)C` (centres undefined) here?
Answer: The Potency was active: 20 µM.

Question: Which Potency does the source give for `Cc1cccc(CNC(=O)CN2CC(C)Sc3ccccc32)c1` (centres undefined) here?
Answer: The Potency was inconclusive [activator, partial curve].

Question: For `O=C(NNC(=O)c1cc(Cl)nc2ccccc12)c1ccccc1F`, which “growth rescue (activation)” value is on record?
Answer: Its value is inactive: -8.16%.

Question: With `Cc1ccc(C)c(N2CCN(C(=S)NC3CCCCC3)CC2)c1` as the molecule, how does the Potency read?
Answer: Its Potency is inconclusive [activator, partial curve].

Question: With `Cc1ccc(CNS(=O)(=O)c2ccc(Br)s2)cc1` as the molecule, how does the Potency read?
Answer: The Potency was inconclusive [activator, partial curve].

Question: Which Potency does the source give for `COc1ccc(NC(=O)c2nn(C)c3c2CSc2ccc(C)cc2-3)cc1OC` here?
Answer: Its Potency is active: 22.4 µM.
